The results in this text go back to patent US20250270341A1 (Alector, published 2025).

Test [1] addresses T1, human CD98hc endogenously expressed on HCMEC/D3 cells (human).
T1 construct: human brain endothelial cell line
T1 chain: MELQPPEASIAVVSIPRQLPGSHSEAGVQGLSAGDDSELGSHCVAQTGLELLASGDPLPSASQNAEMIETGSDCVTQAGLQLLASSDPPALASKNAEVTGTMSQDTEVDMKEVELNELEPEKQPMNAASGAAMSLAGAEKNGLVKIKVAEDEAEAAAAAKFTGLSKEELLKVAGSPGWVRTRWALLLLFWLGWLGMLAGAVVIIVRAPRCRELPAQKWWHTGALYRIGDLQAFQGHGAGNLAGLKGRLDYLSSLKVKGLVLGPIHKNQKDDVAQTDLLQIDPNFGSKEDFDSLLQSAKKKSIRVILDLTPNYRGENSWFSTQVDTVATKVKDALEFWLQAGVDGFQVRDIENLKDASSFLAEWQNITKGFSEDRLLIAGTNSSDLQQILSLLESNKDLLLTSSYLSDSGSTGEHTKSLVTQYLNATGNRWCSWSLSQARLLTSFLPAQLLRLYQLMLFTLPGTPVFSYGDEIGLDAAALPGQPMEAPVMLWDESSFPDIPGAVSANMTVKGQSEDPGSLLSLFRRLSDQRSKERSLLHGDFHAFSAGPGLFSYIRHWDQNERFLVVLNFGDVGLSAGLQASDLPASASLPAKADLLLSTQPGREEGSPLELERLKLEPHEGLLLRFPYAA
The test is described as follows: FACS, 5 ug/ml.

Test [2] concerns the target T2, huCD98hc ECD Avi-His (human, UniProt P08195 105-529).
T2 construct: biotinylated on the Avi tag where captured on streptavidin; also called Human CD98-AVI-His; Human CD98hc-AVI-His
T2 sequence: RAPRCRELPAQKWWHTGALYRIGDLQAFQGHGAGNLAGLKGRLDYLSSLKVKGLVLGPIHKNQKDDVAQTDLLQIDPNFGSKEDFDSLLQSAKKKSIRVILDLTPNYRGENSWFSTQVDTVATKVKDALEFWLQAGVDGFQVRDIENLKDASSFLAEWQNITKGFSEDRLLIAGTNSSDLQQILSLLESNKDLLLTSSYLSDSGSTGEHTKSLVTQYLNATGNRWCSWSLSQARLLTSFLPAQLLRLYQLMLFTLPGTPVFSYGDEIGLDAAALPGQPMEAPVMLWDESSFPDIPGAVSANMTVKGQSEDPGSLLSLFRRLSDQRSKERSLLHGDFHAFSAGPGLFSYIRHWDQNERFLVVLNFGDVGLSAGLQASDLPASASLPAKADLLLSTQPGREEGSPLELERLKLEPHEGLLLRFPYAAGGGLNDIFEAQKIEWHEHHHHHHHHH
Briefly: SPR, Carterra LSA, antibody immobilized. For orientation: SPR reads the build-up and loss of mass on a sensor chip optically.

Test [3] deals with T3, Cyno CD98hc ECD Avi-His (cynomolgus macaque, UniProt P08195 105-529 (human entry)).
T3 construct: biotinylated on the Avi tag where captured on streptavidin; also called Cyno CD98-AVI-His; Cyno CD98hc-AVI-His
T3 chain: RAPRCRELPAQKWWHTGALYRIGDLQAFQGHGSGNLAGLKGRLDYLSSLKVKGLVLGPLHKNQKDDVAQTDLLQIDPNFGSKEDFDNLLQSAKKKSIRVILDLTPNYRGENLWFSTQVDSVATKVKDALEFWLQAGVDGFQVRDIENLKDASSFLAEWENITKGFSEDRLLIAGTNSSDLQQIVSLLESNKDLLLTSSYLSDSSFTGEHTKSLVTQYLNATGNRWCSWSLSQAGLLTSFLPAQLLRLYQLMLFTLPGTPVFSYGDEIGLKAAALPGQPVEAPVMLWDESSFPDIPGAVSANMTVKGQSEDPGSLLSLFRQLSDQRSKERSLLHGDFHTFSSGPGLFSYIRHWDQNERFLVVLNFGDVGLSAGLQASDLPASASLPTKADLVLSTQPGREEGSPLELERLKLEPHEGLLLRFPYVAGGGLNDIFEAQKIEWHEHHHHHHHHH
The test is described as follows: SPR, Carterra LSA, antibody immobilized.

B1: CD98hc.04.012 (2+1 bispecific antibody) (bispecific antibody)
heavy 1: EVRLLESGGGLVQPGGSLRLSCAASGFTFSNYAMGWVRQAPGKGLEWVSAISGSGGSTYYADSVKGRFTTSRDDSKNALYLQMNSLRAEDTAVYYCARGGPGWYAADVWGQGTTVTVSSASTKGPSVFPLAPSSKSTSGGTAALGCLVKDYFPEPVTVSWNSGALTSGVHTFPAVLQSSGLYSLSSVVTVPSSSLGTQTYICNVNHKPSNTKVDKKV[here human IgG1 Fc with changes without letters]GGGGSGGGGSGGGGSQVQLQQSGADLVRPGDSVKISCKGSGYTFTDNTLHWVKQSHAKSLEWIGVISPYYGDASYNQKFKGKATMTVDKSSSTAYMELARLTSEDSAIYYCARVGGRLRLGYYFDHWGQGTTLTVSSGGSEGKSSGSGSESKSTGGSNIMMTQSPSSLAVSAGEKVTMNCKSSQSVLSSSNQKNYLAWYQQKPGQSPKLLIYWASTRESGVPARFTGSGSGTDFSLTITSVQAEDLAVYYCLQYLSSYTFGGGTKLEIK
heavy 2: EVRLLESGGGLVQPGGSLRLSCAASGFTFSNYAMGWVRQAPGKGLEWVSAISGSGGSTYYADSVKGRFTTSRDDSKNALYLQMNSLRAEDTAVYYCARGGPGWYAADVWGQGTTVTVSS[here human IgG1 constant region with changes without letters]
light: DIQMTQSPSSLSASVGDRVTITCRASQSISSYLNWYQQKPGKAPKLLIYAASSLQSGVPSRFSGSGSGTDFTLTISSLQPEDFATYYCQQADLPAFAFGGGTKVEIKRTVAAPSVFIFPPSDEQLKSGTASVVCLLNNFYPREAKVQWKVDNALQSGNSQESVTEQDSKDSTYSLSSTLTLSKADYEKHKVYACEVTHQGLSSPVTKSFNRGEC
What is called Kd is a measure of binding affinity in units of concentration. Read a high Kd as weaker binding. Take B1: the “MFI fold-change relative to isotype hIgG1” value in test [1] was found to be 96.7. Moreover, the equilibrium dissociation constant (Kd) amounted to 17 nM in test [2] and 140 nM in test [3].

B2: CD98hc.04.013 (2+1 bispecific antibody) (bispecific antibody)
heavy 1: EVRLLESGGGLVQPGGSLRLSCAASGFTFSNYAMGWVRQAPGKGLEWVSAISGSGGSTYYADSVKGRFTTSRDDSKNALYLQMNSLRAEDTAVYYCARGGPGWYAADVWGQGTTVTVSSASTKGPSVFPLAPSSKSTSGGTAALGCLVKDYFPEPVTVSWNSGALTSGVHTFPAVLQSSGLYSLSSVVTVPSSSLGTQTYICNVNHKPSNTKVDKKV[here human IgG1 Fc with changes without letters]GGGGSGGGGSGGGGSEVQLVESGGDLGMPGGSLKLSCAASGFALSGYDMSWVRQTPDKRLEWVAYLSSGGGSTYYPYTVKGRFTISRDNAQNTLYLQMSSLKSEDTAIYYCARHSEVRPWFGYWGQGTLVTVSAGGSEGKSSGSGSESKSTGGSDIVMSQSPSSLAVSVGEKVTLTCKSSQSLLYSGNQKNYLAWYQQNPGQSPKLLIYWASTRESGVPDRFTGSGSGTDFTLTISSVKAEDLAVYYCQQYYTYPPTFGAGTKLGLK
heavy 2: EVRLLESGGGLVQPGGSLRLSCAASGFTFSNYAMGWVRQAPGKGLEWVSAISGSGGSTYYADSVKGRFTTSRDDSKNALYLQMNSLRAEDTAVYYCARGGPGWYAADVWGQGTTVTVSS[here human IgG1 constant region with changes without letters]
light: DIQMTQSPSSLSASVGDRVTITCRASQSISSYLNWYQQKPGKAPKLLIYAASSLQSGVPSRFSGSGSGTDFTLTISSLQPEDFATYYCQQADLPAFAFGGGTKVEIKRTVAAPSVFIFPPSDEQLKSGTASVVCLLNNFYPREAKVQWKVDNALQSGNSQESVTEQDSKDSTYSLSSTLTLSKADYEKHKVYACEVTHQGLSSPVTKSFNRGEC
Regarding B2, in test [1], the “MFI fold-change relative to isotype hIgG1” value came out at 82.1. The equilibrium dissociation constant (Kd) came out at 32 nM in test [2] and 76 nM in test [3].
